# Results published in the supplement of paper PMC8728848.
# This is one part of the list.
# B1: SSR2 (Sclerotium rolfsii) (protein)
# chain: MVYKITVRVYQTNPDAFFHPVEKTVWKYANGGTWSITDDQHVLTMGGSGTSGTLRFHADNGESFTATFGVHNYKRWCDIVTNLAADETGMVINQQYYSQKNREEARERQLSNYQVKNAKGRNFQIVYTEAEGNDLHANLIIG
# Columns and labels:
# Experiment in all cases: glycan array binding signal (z-score within array); higher = stronger binding
# Conditions in all cases: glycan notation: IUPAC condensed, linker removed
# GalNAc(b1-4)GlcNAc = target: GalNAc(b1-4)GlcNAc
# How it was run: (§1)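 Glycan array data came from 3228 arrays in the Consortium for Functional Glycomics database, and only arrays with an available protein sequence were kept. Glycan names were put into IUPAC-condensed notation, and columns mapping to the same glycan were averaged. The binding signal is a within-array Z-score, averaged across arrays of one protein sequence run at different concentrations or buffers and across linkers. A negative Z-score can be read as non-binding.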
# [1] = target: GalNAc(b1-4)GlcNAc(b1-2)Man
# How it was run: as §1
# [2] = target: GalNAc(b1-4)GlcNAc(b1-2)Man(a1-3)[GalNAc(b1-4)GlcNAc(b1-2)Man(a1-6)]Man(b1-4)GlcNAc(b1-4)GlcNAc
# How it was run: as §1
# [3] = target: GalNAc(b1-4)GlcNAc(b1-3)GalNAc(b1-4)GlcNAc
# How it was run: as §1
# GalNAc(b1-4)GlcNAc6S = target: GalNAc(b1-4)GlcNAc6S
# How it was run: as §1
# GalNAc(b1-6)GalNAc = target: GalNAc(b1-6)GalNAc
# How it was run: as §1
# GalNAc3S(b1-4)GlcNAc = target: GalNAc3S(b1-4)GlcNAc
# How it was run: as §1
# GalNAc3S(b1-4)GlcNAc3S = target: GalNAc3S(b1-4)GlcNAc3S
# How it was run: as §1
# [4] = target: GalNAc3S(b1-4)[Fuc(a1-3)]GlcNAc
# How it was run: as §1
# GalNAc4S6S(b1-4)GlcNAc = target: GalNAc4S6S(b1-4)GlcNAc
# How it was run: as §1
# GalNAc6S(b1-4)GlcNAc = target: GalNAc6S(b1-4)GlcNAc
# How it was run: as §1
# Glc(a1-4)Glc = target: Glc(a1-4)Glc
# How it was run: as §1
# [5] = target: Glc(a1-4)Glc(a1-4)Glc(a1-4)Glc
# How it was run: as §1
# Glc(a1-6)Glc(a1-6)Glc = target: Glc(a1-6)Glc(a1-6)Glc
# How it was run: as §1
# [6] = target: Glc(a1-6)Glc(a1-6)Glc(a1-6)Glc
# How it was run: as §1
# Glc(b1-4)Glc = target: Glc(b1-4)Glc
# How it was run: as §1
# Glc(b1-6)Glc = target: Glc(b1-6)Glc
# How it was run: as §1
# GlcA(b1-3)Gal = target: GlcA(b1-3)Gal
# How it was run: as §1
# GlcA(b1-3)GlcNAc = target: GlcA(b1-3)GlcNAc
# How it was run: as §1
# GlcA(b1-6)Gal = target: GlcA(b1-6)Gal
# How it was run: as §1
# [7] = target: GlcA3S(b1-3)Gal(b1-4)GlcNAc(b1-2)Man
# How it was run: as §1
# [8] = target: GlcA3S(b1-3)Gal(b1-4)GlcNAc(b1-3)Gal(b1-4)Glc
# How it was run: as §1
# [9] = target: GlcNAc(a1-3)Gal(b1-4)GlcNAc
# How it was run: as §1
# [10] = target: GlcNAc(a1-4)Gal(b1-3)GlcNAc
# How it was run: as §1
# [11] = target: GlcNAc(a1-4)Gal(b1-4)GalNAc
# How it was run: as §1
# [12] = target: GlcNAc(a1-4)Gal(b1-4)GlcNAc
# How it was run: as §1
# [13] = target: GlcNAc(a1-4)Gal(b1-4)GlcNAc(b1-3)Gal(b1-4)Glc
# How it was run: as §1
# [14] = target: GlcNAc(a1-4)Gal(b1-4)GlcNAc(b1-3)Gal(b1-4)GlcNAc
# How it was run: as §1
# [15] = target: GlcNAc(a1-4)Gal(b1-4)GlcNAc(b1-3)Gal(b1-4)GlcNAc(b1-3)Gal(b1-4)GlcNAc
# How it was run: as §1
# [16] = target: GlcNAc(a1-4)Gal(b1-4)GlcNAc(b1-3)Gal(b1-4)[Fuc(a1-3)]GlcNAc(b1-3)Gal(b1-4)[Fuc(a1-3)]GlcNAc
# How it was run: as §1
# [17] = target: GlcNAc(a1-6)Gal(b1-4)GlcNAc
# How it was run: as §1
# [18] = target: GlcNAc(b1-2)Gal(b1-3)GalNAc
# How it was run: as §1
# [19] = target: GlcNAc(b1-2)Man(a1-3)[GlcNAc(b1-2)Man(a1-6)]Man(b1-4)GlcNAc(b1-4)GlcNAc
# How it was run: as §1
# [20] = target: GlcNAc(b1-2)Man(a1-3)[GlcNAc(b1-2)Man(a1-6)]Man(b1-4)GlcNAc(b1-4)[Fuc(a1-6)]GlcNAc
# How it was run: as §1
# [21] = target: GlcNAc(b1-2)Man(a1-3)[GlcNAc(b1-4)][GlcNAc(b1-2)Man(a1-6)]Man(b1-4)GlcNAc(b1-4)GlcNAc
# How it was run: as §1
# [22] = target: GlcNAc(b1-2)Man(a1-3)[GlcNAc(b1-4)][GlcNAc(b1-2)Man(a1-6)]Man(b1-4)GlcNAc(b1-4)[Fuc(a1-6)]GlcNAc
# How it was run: as §1
# [23] = target: GlcNAc(b1-2)[GlcNAc(b1-4)]Man(a1-3)[GlcNAc(b1-2)Man(a1-6)]Man(b1-4)GlcNAc(b1-4)GlcNAc
# How it was run: as §1
# [24] = target: GlcNAc(b1-2)[GlcNAc(b1-4)]Man(a1-3)[GlcNAc(b1-4)][GlcNAc(b1-2)Man(a1-6)]Man(b1-4)GlcNAc(b1-4)GlcNAc
# How it was run: as §1
# [25] = target: GlcNAc(b1-2)[GlcNAc(b1-4)]Man(a1-3)[GlcNAc(b1-4)][GlcNAc(b1-2)[GlcNAc(b1-6)]Man(a1-6)]Man(b1-4)GlcNAc(b1-4)GlcNAc
# How it was run: as §1
# [26] = target: GlcNAc(b1-2)[GlcNAc(b1-4)]Man(a1-3)[GlcNAc(b1-4)][GlcNAc(b1-2)[GlcNAc(b1-6)]Man(a1-6)]Man(b1-4)GlcNAc(b1-4)[Fuc(a1-6)]GlcNAc
# How it was run: as §1
# [27] = target: GlcNAc(b1-2)[GlcNAc(b1-6)]Man(a1-6)[GlcNAc(b1-2)Man(a1-3)]Man(b1-4)GlcNAc(b1-4)GlcNAc
# How it was run: as §1
# [28] = target: GlcNAc(b1-2)[GlcNAc(b1-6)]Man(a1-6)[GlcNAc(b1-2)Man(a1-3)]Man(b1-4)GlcNAc(b1-4)[Fuc(a1-6)]GlcNAc
# How it was run: as §1
# [29] = target: GlcNAc(b1-2)[GlcNAc(b1-6)]Man(a1-6)[GlcNAc(b1-4)][GlcNAc(b1-2)Man(a1-3)]Man(b1-4)GlcNAc(b1-4)GlcNAc
# How it was run: as §1
# GlcNAc(b1-3)Fuc = target: GlcNAc(b1-3)Fuc
# How it was run: as §1
# GlcNAc(b1-3)Gal = target: GlcNAc(b1-3)Gal
# How it was run: as §1
binder,measurement,setting,value
B1,glycan array binding signal (z-score),GalNAc(b1-4)GlcNAc,-0.285
same,glycan array binding signal (z-score),[1],-0.284
same,glycan array binding signal (z-score),[2],-0.274
same,glycan array binding signal (z-score),[3],-0.283
same,glycan array binding signal (z-score),GalNAc(b1-4)GlcNAc6S,-0.294
same,glycan array binding signal (z-score),GalNAc(b1-6)GalNAc,-0.282
same,glycan array binding signal (z-score),GalNAc3S(b1-4)GlcNAc,-0.287
same,glycan array binding signal (z-score),GalNAc3S(b1-4)GlcNAc3S,-0.285
same,glycan array binding signal (z-score),[4],-0.294
same,glycan array binding signal (z-score),GalNAc4S6S(b1-4)GlcNAc,-0.291
same,glycan array binding signal (z-score),GalNAc6S(b1-4)GlcNAc,-0.29
same,glycan array binding signal (z-score),Glc(a1-4)Glc,-0.262
same,glycan array binding signal (z-score),[5],-0.286
same,glycan array binding signal (z-score),Glc(a1-6)Glc(a1-6)Glc,-0.283
same,glycan array binding signal (z-score),[6],-0.284
same,glycan array binding signal (z-score),Glc(b1-4)Glc,-0.279
same,glycan array binding signal (z-score),Glc(b1-6)Glc,-0.269
same,glycan array binding signal (z-score),GlcA(b1-3)Gal,-0.282
same,glycan array binding signal (z-score),GlcA(b1-3)GlcNAc,-0.282
same,glycan array binding signal (z-score),GlcA(b1-6)Gal,-0.267
same,glycan array binding signal (z-score),[7],-0.288
same,glycan array binding signal (z-score),[8],-0.292
same,glycan array binding signal (z-score),[9],3.71
same,glycan array binding signal (z-score),[10],1.74
same,glycan array binding signal (z-score),[11],0.967
same,glycan array binding signal (z-score),[12],2.16
same,glycan array binding signal (z-score),[13],2.56
same,glycan array binding signal (z-score),[14],2.84
same,glycan array binding signal (z-score),[15],6.99
same,glycan array binding signal (z-score),[16],2.78
same,glycan array binding signal (z-score),[17],0.528
same,glycan array binding signal (z-score),[18],-0.29
same,glycan array binding signal (z-score),[19],6.77
same,glycan array binding signal (z-score),[20],2.06
same,glycan array binding signal (z-score),[21],2.45
same,glycan array binding signal (z-score),[22],2.85
same,glycan array binding signal (z-score),[23],2.71
same,glycan array binding signal (z-score),[24],1.68
same,glycan array binding signal (z-score),[25],1.08
same,glycan array binding signal (z-score),[26],-0.095
same,glycan array binding signal (z-score),[27],4.32
same,glycan array binding signal (z-score),[28],4.49
same,glycan array binding signal (z-score),[29],1.23
same,glycan array binding signal (z-score),GlcNAc(b1-3)Fuc,-0.269
same,glycan array binding signal (z-score),GlcNAc(b1-3)Gal,-0.284
